From the supplement of paper PMC4967469
The IC50 comes from the fitted curve, where viability falls to half of the control; fits outside the tested doses are given as limits. AUC sums up the same curve from the lowest dose to the 256-fold higher top dose: 1 means no effect, lower means more sensitive. For some assays here: A top dose marked as inferred is not printed in the source and was worked back from the curve model. For some assays here: An entry number marks a drug with two screens in the source, which often give different values.

Experiments:
Assay in all cases: Viability of human cancer cell lines after 72 h of drug (GDSC screen)
[1] = compound: COc1cc(F)c(F)c(Nc2ccc(I)cc2F)c1NS(=O)(=O)C1(C[C@H](O)CO)CC1 [RDEA119]; conditions: top dose 5 µM, top dose inferred
Protocol: (§1)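 Human cancer cell lines in 384-well plates, medium with 10% serum, drug for 72 h over a 256-fold dose range (nine 2-fold or five 4-fold steps up to the top dose). Adherent lines were fixed and stained with the nucleic acid dye Syto60, suspension lines read with resazurin; signal relative to control wells, capped at 0 and 100%. One two-parameter sigmoid per drug and line, fitted in a mixed model over all curves with the slope shared within a line.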

[2] = compound: OC[C@H](Cc1ccccc1)Nc1nc(Oc2ccc3c(c2)CCC3)nc2c1ncn2Cc1ccc(-c2ccccc2)cc1 [QS11]; conditions: top dose 10.24 µM
Protocol: as §1

[3] = compound: Fc1cc(-c2ccnc(Nc3ccc(-n4cnc(N5CCOCC5)n4)cc3)n2)cc(N2CCOCC2)c1 [JNK-9L]; conditions: top dose 5.12 µM; top dose inferred
Protocol: as §1

[4] = compound: C#Cc1cccc(Nc2ncnc3cc(OC)c(OCCCCCCC(=O)NO)cc23)c1 [CUDC-101]; conditions: top dose 5.12 µM; top dose inferred
Protocol: as §1

[5] = compound: NCC(=O)Nc1ccc(-n2nc(C(F)(F)F)cc2-c2ccc3c(ccc4ccccc43)c2)cc1 [OSU-03012]; conditions: top dose 16 µM; top dose inferred
Protocol: as §1

[6] = compound: CC(C)(C)c1cc(NC(=O)Nc2ccc(-c3cn4c(n3)sc3cc(OCCN5CCOCC5)ccc34)cc2)no1 [AC220]; conditions: top dose 1.024 µM; top dose inferred
Protocol: as §1

Cell Line	AUC ([1]; screen: GDSC drug entry 1014)	IC50 ([1]; screen: GDSC drug entry 1014) [nM]	AUC ([1]; screen: GDSC drug entry 1526)	IC50 ([1]; screen: GDSC drug entry 1526) [nM]	AUC [2]	IC50 [2] [nM]	AUC [3]	IC50 [3] [nM]	AUC [4]	IC50 [4] [nM]	AUC [5]	IC50 [5] [nM]	AUC [6]	IC50 [6] [nM]
BT-549 (breast, adherent)	0.9	> 5000	0.92	> 5000	–	–	–	–	–	–	–	–	–	–
NCI-H1650 (lung adenocarcinoma, adherent)	–	–	0.94	> 5000	–	–	–	–	–	–	–	–	–	–
A375 (melanoma, adherent)	0.297	94.8	0.294	92.9	0.857	6090	0.546	416	0.59	538	0.644	2310	–	–
CL-40 (large intestine, adherent)	0.631	921	0.644	1030	–	–	–	–	–	–	–	–	–	–
ECC12 (stomach, suspension)	–	–	–	–	–	–	0.497	314	–	–	–	–	–	–
VMRC-LCD (lung adenocarcinoma, adherent)	0.984	> 5000	0.992	> 5000	–	–	–	–	–	–	–	–	–	–
NCI-H835 (lung carcinoid, suspension)	0.991	> 5000	0.987	> 5000	–	–	–	–	–	–	–	–	–	–
KG-1 (acute myeloid leukaemia, suspension)	0.955	> 5000	0.83	2700	0.962	> 10200	0.573	496	0.491	303	0.824	8220	–	–
EHEB (lymphoid neoplasm, suspension)	0.899	> 5000	0.973	> 5000	0.979	> 10200	0.549	464	–	–	0.76	8250	–	–
MOLM-16 (acute myeloid leukaemia, suspension)	0.751	1480	0.902	> 5000	–	–	–	–	–	–	–	–	–	–
NCI-H929 (myeloma, suspension)	0.654	778	0.615	613	–	–	–	–	–	–	–	–	–	–
ZR-75-30 (breast, adherent)	0.976	> 5000	–	–	–	–	–	–	–	–	–	–	–	–
SCC90 (head and neck, adherent)	0.588	603	0.7	1460	0.98	> 10200	0.61	731	–	–	0.866	> 16000	–	–
DOHH-2 (B-cell lymphoma, suspension)	0.986	> 5000	–	–	0.87	9190	0.569	491	–	–	0.728	4380	–	–
MKN7 (stomach, adherent)	0.729	1800	0.924	> 5000	–	–	–	–	–	–	–	–	–	–
K-562 (chronic myeloid leukaemia, suspension)	–	–	–	–	0.929	> 10200	0.834	3190	0.458	248	–	–	–	–
SUP-B8 (B-cell leukaemia, suspension)	0.988	> 5000	0.985	> 5000	–	–	–	–	–	–	–	–	–	–
JHOS-4 (ovary, adherent)	0.876	> 5000	–	–	–	–	–	–	–	–	–	–	–	–
KASUMI-1 (acute myeloid leukaemia, suspension)	–	–	0.64	764	–	–	0.518	358	–	–	–	–	–	–
A549 (lung adenocarcinoma, adherent)	0.432	199	0.547	426	–	–	–	–	–	–	–	–	–	–
HT-29 (large intestine, adherent)	0.332	107	0.469	257	0.868	9260	0.523	370	0.561	468	–	–	0.986	> 1020
KATOIII (stomach, semi-adherent)	0.847	3230	–	–	–	–	–	–	–	–	–	–	–	–
EW-22 (Ewing sarcoma, adherent)	0.958	> 5000	0.958	> 5000	–	–	–	–	–	–	–	–	–	–
SK-MEL-5 (melanoma, adherent)	0.498	308	0.619	716	–	–	–	–	0.959	> 5120	–	–	0.983	> 1020

Cell Line	AUC ([1]; screen: GDSC drug entry 1014)	IC50 ([1]; screen: GDSC drug entry 1014) [nM]	AUC ([1]; screen: GDSC drug entry 1526)	IC50 ([1]; screen: GDSC drug entry 1526) [nM]	AUC [2]	IC50 [2] [nM]	AUC [3]	IC50 [3] [nM]	AUC [4]	IC50 [4] [nM]	AUC [5]	IC50 [5] [nM]	AUC [6]	IC50 [6] [nM]
HCC-827 (lung adenocarcinoma, adherent)	0.958	> 5000	0.944	> 5000	0.978	> 10200	0.588	578	–	–	0.866	> 16000	–	–
GA-10 (Burkitt lymphoma, suspension)	0.958	> 5000	0.972	> 5000	–	–	0.349	132	–	–	–	–	–	–
MEL-HO (melanoma, adherent)	0.249	58.7	0.269	68	–	–	–	–	–	–	–	–	–	–
MM1S (myeloma, suspension)	0.782	1970	–	–	–	–	–	–	–	–	–	–	–	–
SKM-1 (haematopoietic neoplasm, suspension)	0.199	35.8	0.24	50.7	–	–	–	–	–	–	–	–	–	–
KNS-62 (lung squamous cell carcinoma, adherent)	0.748	2270	0.616	755	–	–	–	–	–	–	–	–	–	–
DIFI (large intestine, adherent)	0.679	1010	0.681	1030	–	–	–	–	–	–	–	–	–	–
SK-GT-2 (stomach, adherent)	0.882	> 5000	0.867	4920	–	–	–	–	–	–	–	–	–	–
KP-1N (pancreas, adherent)	0.942	> 5000	0.846	3910	0.866	9930	0.611	657	–	–	0.65	2660	–	–
COR-L311 (small cell lung carcinoma, suspension)	–	–	–	–	–	–	–	–	–	–	–	–	0.904	> 1020
PWR-1E (prostate, adherent)	0.904	> 5000	0.974	> 5000	–	–	–	–	–	–	–	–	–	–
JHU-029 (head and neck, adherent)	0.653	919	0.616	701	0.928	> 10200	0.533	401	–	–	0.614	2220	–	–
TC-YIK (cervix, suspension)	0.844	2900	0.837	2730	–	–	–	–	–	–	–	–	–	–
OCI-LY7 (B-cell lymphoma, suspension)	0.969	> 5000	–	–	–	–	–	–	–	–	–	–	–	–
MOLT-16 (T-cell lymphoblastic leukaemia, suspension)	0.991	> 5000	0.95	> 5000	–	–	–	–	–	–	–	–	–	–
FLO-1 (oesophagus, adherent)	0.763	2610	0.783	3180	–	–	–	–	0.552	471	–	–	0.966	> 1020
CL-34 (large intestine, adherent)	0.51	333	0.425	190	–	–	–	–	–	–	–	–	–	–
MHH-CALL-2 (B-cell leukaemia, suspension)	0.878	2880	0.996	> 5000	–	–	–	–	–	–	–	–	–	–
CCRF-CEM (lymphoblastic leukaemia, suspension)	0.958	> 5000	0.958	> 5000	0.801	4090	0.526	371	0.244	68.2	–	–	0.985	> 1020
IM-9 (myeloma, suspension)	0.912	> 5000	0.782	1800	0.9	9980	0.847	3010	–	–	0.726	3920	–	–
CRO-AP2 (B-cell lymphoma, suspension)	0.967	> 5000	0.971	> 5000	–	–	–	–	–	–	–	–	–	–
NK-92MI (lymphoid neoplasm, suspension)	–	–	–	–	0.766	3530	0.528	379	–	–	0.734	4380	–	–
BALL-1 (B-cell leukaemia, suspension)	0.997	> 5000	0.991	> 5000	–	–	–	–	–	–	–	–	–	–
NCI-H2066 (small cell lung carcinoma, adherent)	0.962	> 5000	0.969	> 5000	–	–	–	–	–	–	–	–	–	–

Cell Line	AUC ([1]; screen: GDSC drug entry 1014)	IC50 ([1]; screen: GDSC drug entry 1014) [nM]	AUC ([1]; screen: GDSC drug entry 1526)	IC50 ([1]; screen: GDSC drug entry 1526) [nM]	AUC [2]	IC50 [2] [nM]	AUC [3]	IC50 [3] [nM]	AUC [4]	IC50 [4] [nM]	AUC [5]	IC50 [5] [nM]	AUC [6]	IC50 [6] [nM]
KARPAS-1106P (B-cell lymphoma, suspension)	0.945	> 5000	0.99	> 5000	–	–	–	–	–	–	–	–	–	–
UACC-62 (melanoma, adherent)	0.987	> 5000	0.364	132	0.987	> 10200	0.524	–	0.714	1280	–	–	0.985	> 1020
HCT-15 (large intestine, adherent)	0.721	1380	–	–	0.686	2200	0.502	325	0.91	> 5120	–	–	0.979	> 1020
RCH-ACV (B-cell leukaemia, suspension)	0.983	> 5000	0.975	> 5000	–	–	–	–	–	–	–	–	–	–
THP-1 (acute myeloid leukaemia, suspension)	–	–	–	–	0.971	> 10200	0.715	1210	0.309	99.4	–	–	–	–
HCC-366 (non-small cell lung carcinoma, adherent)	0.956	> 5000	0.945	> 5000	–	–	–	–	–	–	–	–	–	–
CML-T1 (chronic myeloid leukaemia, suspension)	0.837	2570	0.939	> 5000	–	–	–	–	–	–	–	–	–	–
IGROV-1 (ovary, adherent)	0.705	1570	0.845	> 5000	–	–	–	–	–	–	–	–	–	–
Jurkat (T-cell leukaemia, suspension)	0.99	> 5000	0.992	> 5000	–	–	–	–	–	–	–	–	–	–
NCI-H508 (large intestine, semi-adherent)	0.579	596	0.776	3660	–	–	–	–	–	–	–	–	–	–
NCI-H1105 (small cell lung carcinoma, suspension)	0.993	> 5000	0.986	> 5000	–	–	–	–	–	–	–	–	–	–
STS-0421 (soft tissue, adherent)	0.781	2440	0.821	3530	0.888	> 10200	0.569	512	–	–	0.938	> 16000	–	–
NCI-H146 (small cell lung carcinoma, suspension)	0.995	> 5000	0.995	> 5000	–	–	–	–	–	–	–	–	–	–
AsPC-1 (pancreas, adherent)	0.646	1050	0.534	414	0.971	> 10200	0.803	> 5120	0.71	1940	–	–	0.955	> 1020
U-266 (myeloma, semi-adherent)	0.821	4360	0.902	> 5000	–	–	–	–	–	–	–	–	–	–
NCI-H1341 (small cell lung carcinoma, suspension)	0.937	> 5000	0.955	> 5000	–	–	–	–	–	–	–	–	–	–
COR-L32 (small cell lung carcinoma, suspension)	–	–	0.953	> 5000	–	–	–	–	–	–	–	–	–	–
NCC010 (kidney, adherent)	0.927	> 5000	0.939	> 5000	–	–	–	–	–	–	–	–	–	–
RH-18 (rhabdomyosarcoma, adherent)	0.862	> 5000	0.869	> 5000	–	–	–	–	–	–	–	–	–	–
JEKO-1 (B-cell lymphoma, suspension)	0.953	> 5000	0.976	> 5000	–	–	–	–	–	–	–	–	–	–
SK-MEL-31 (melanoma, adherent)	0.867	> 5000	0.95	> 5000	–	–	–	–	–	–	–	–	–	–
NCI-N87 (stomach, adherent)	0.904	> 5000	0.965	> 5000	–	–	–	–	–	–	–	–	–	–
